Source: publication PMC4336329 (PLoS ONE, 2015)
In all, about 310,000 compounds went through this assay and about 14,000 (4.5%) showed an effect of 50% or more. The effect is printed as a negative number. Some of the results follow.

Biological target: human ether-à-go-go-related gene (hERG) potassium channel (human, UniProt Q12809)
Test: primary screen, population patch clamp on CHO cells stably expressing hERG
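Further: peak tail current of the secondary pulse compared with the same well before compound.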

Chain of human ether-à-go-go-related gene (hERG) potassium channel (Q12809 whole entry, looked up): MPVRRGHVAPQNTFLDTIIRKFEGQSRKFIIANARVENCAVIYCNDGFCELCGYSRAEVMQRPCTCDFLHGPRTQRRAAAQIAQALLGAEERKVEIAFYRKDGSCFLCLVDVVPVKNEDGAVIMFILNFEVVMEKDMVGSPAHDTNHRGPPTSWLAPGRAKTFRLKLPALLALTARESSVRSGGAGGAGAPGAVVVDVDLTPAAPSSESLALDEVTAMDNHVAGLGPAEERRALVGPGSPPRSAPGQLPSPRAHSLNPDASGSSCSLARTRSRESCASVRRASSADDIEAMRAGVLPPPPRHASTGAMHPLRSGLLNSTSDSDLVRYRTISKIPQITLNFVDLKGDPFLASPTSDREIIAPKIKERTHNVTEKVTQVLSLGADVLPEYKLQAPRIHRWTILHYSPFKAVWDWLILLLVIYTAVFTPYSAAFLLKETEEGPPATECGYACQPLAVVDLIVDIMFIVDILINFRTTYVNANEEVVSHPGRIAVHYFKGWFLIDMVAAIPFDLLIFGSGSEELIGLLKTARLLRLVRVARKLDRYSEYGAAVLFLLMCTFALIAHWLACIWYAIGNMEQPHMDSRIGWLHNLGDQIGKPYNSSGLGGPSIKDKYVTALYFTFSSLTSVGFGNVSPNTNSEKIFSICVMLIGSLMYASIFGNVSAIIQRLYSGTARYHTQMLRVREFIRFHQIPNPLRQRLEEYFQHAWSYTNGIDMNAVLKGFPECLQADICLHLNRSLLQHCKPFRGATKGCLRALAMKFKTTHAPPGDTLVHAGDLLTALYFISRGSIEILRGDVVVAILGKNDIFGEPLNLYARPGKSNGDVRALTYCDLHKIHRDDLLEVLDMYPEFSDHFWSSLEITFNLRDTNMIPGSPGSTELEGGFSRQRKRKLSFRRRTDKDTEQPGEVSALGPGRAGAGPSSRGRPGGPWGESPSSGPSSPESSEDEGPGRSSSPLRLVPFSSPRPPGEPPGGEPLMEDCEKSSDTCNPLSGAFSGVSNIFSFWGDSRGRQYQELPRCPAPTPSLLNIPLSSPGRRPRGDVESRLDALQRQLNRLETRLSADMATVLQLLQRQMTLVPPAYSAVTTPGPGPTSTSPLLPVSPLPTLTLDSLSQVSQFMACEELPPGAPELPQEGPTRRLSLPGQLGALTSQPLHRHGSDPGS

Structure (SMILES)	hERG current change (%, negative = inhibition) at 10uM [%]
CCC(C)C(NC(=O)C1CCC(C)CC1)C(=O)NCc1ccco1 (stereo not drawn)	12.5
COc1cccc(/C(O)=C2\C(=O)C(=O)N(c3ccccn3)C2c2ccccc2OC)c1 (stereo not drawn)	8.82
CCCCN(C(=O)NC(=O)Nc1ccccc1C)S(C)(=O)=O	15.9
COc1ccccc1NC(=O)Cn1cc(C#N)c2ccccc21	-9.01
Cc1ccc(O)c(CNc2nc3ccccc3n2C)c1	2.18
O=C(NCC(=O)N1CCC(Cc2ccccc2)CC1)c1ccc(Cl)cc1	-23.3
O=c1c2sccc2nc(SCc2cc(=O)n3cc(Cl)ccc3n2)n1Cc1ccccn1	-26.2
COc1ccc(N2CCN(C(=O)CCNS(=O)(=O)c3ccc(Br)s3)CC2)cc1	-50.6
CC(=O)NCCOc1nc(N(C)C)nc(N2CCOCC2)n1	3.54
CCOc1ccc(C(=O)Nc2ccc(NC(=O)c3cccs3)cc2)cc1[N+](=O)[O-]	-9.28
CCOC(=O)/C(C(N)=NCC(C)C)=C(/O)c1ccccc1	-3.05
O=S1(=O)C=C(SCc2cccc(Cl)c2)Nc2ccccc21	-8.09
CC1=NN(Cc2c[nH]c3ccccc23)C(C)(C)C1	-18
CCOc1ncccc1C(=O)OCc1cn2cc(Cl)ccc2n1	-30.3
O=C(CN1C(=O)C2C3CCC(C3)C2C1=O)N1CCN(Cc2ccccc2)CC1 (stereo not drawn)	-7.83
NS(=O)(=O)c1cc(C(=O)O)cc(N2CCCC2)c1Oc1ccccc1	0.0774
Cl.Fc1ccccc1COc1ccc(Br)cc1CNCc1cccnc1	-70.2
CCOC(=O)c1ccc(N(C(=O)c2ccco2)C(C(=O)NC2CCCC2)c2ccncc2)cc1 (stereo not drawn)	-43
COc1ccc(OC)c(NC(=O)c2ccc3c(c2)C(=O)N(c2ccc(OC(C)=O)cc2)C3=O)c1	13.6
Cn1cc(CN2C[C@H]3CC[C@H]2C3)c(-c2ccccc2F)n1	7.1
Nn1c(COc2ccccc2F)nnc1SCC(=O)NC1CC1	0.387
O=C(Nc1nnc(-c2cccs2)o1)c1cccc(C(F)(F)F)c1	-0.761
CCN(CC)CCOC(=O)c1c(C)oc2ccc(OC)cc12.Cl	-36.6
Cc1cc(OCC(=O)N(Cc2cccs2)C2CCS(=O)(=O)C2)ccc1Cl (stereo not drawn)	-42
